Laboratory results: PubChem BioAssay AID1645882 (National Center for Advancing Translational Sciences (NCATS), 2021)
Hit rate of the full screen: of about 16,000 compounds, about 120 (0.75%) were called active. Not shown: some 4% with an inconclusive outcome. The call rests on the fitted dose curve; in most records, active means well fitted inhibition curve with a large enough effect; inconclusive means small, poorly fitted or top-dose-only effect; inactive means no such curve, though single readings can be large or run the other way. This is one part of the list.

molecular target: Rap guanine nucleotide exchange factor 3 (Homo sapiens) (UniProt O95398); assay: Validation qHTS for antagonist of cAMP-regulated guanine nucleotide exchange factor 3 (EPAC1); details: EPAC1 Rap1B-BODIPY-GDP exchange, fluorescence; series mostly up to 150 µM; activity change, negative = inhibition: at the top concentration;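 further: plate controls were DMSO for no effect and ATA control for full effect; nearly all actives have a fitted effect of over 75% in size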
UniProt O95398, sequence (O95398 whole entry, looked up): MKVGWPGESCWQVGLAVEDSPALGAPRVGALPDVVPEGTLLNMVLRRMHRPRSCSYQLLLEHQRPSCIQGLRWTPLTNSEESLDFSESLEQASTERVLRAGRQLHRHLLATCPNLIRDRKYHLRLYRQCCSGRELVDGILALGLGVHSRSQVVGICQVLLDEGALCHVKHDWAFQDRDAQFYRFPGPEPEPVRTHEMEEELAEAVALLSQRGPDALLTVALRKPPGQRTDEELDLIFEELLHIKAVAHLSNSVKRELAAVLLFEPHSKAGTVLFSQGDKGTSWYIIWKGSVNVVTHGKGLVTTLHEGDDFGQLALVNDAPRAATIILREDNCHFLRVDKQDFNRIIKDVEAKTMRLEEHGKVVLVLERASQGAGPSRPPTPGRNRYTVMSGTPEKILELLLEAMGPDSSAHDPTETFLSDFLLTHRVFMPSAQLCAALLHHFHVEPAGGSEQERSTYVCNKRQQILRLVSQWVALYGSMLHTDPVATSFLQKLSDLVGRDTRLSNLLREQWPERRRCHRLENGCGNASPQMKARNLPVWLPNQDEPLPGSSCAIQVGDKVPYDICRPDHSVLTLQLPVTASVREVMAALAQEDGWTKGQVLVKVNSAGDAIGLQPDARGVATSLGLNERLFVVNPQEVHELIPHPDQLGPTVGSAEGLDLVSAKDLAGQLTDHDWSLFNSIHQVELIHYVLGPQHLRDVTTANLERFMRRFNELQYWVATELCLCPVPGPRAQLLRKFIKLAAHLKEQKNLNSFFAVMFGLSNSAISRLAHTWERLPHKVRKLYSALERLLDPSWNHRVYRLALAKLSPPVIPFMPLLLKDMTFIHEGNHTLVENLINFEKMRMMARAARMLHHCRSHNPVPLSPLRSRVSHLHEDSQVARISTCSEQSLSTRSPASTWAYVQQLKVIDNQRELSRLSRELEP
How it was run: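 Nucleotide exchange followed as fluorescence loss when BODIPY-GDP leaves Rap1B (480 nm excitation, 540 nm emission), read at 5 min intervals over 30 min. Reaction: 100 nM EPAC1, 250 nM RAP1B-BODIPY-GDP, 50 uM GDP; ATA and DMSO define normalization.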

Activity change, negative = inhibition, inactive:
COc1ncc2ncc(=O)n(C[C@H]3CCCO3)c2n1 12.8%
COc1ccc(-c2nc3cncnc3n(-c3ccccc3)c2=O)cc1 6.72%
CC(=O)OCC(CCn1cnc2cnc(N)nc21)COC(C)=O 11.1%
NNc1nncc2ccccc12
COCC(=O)N1CCC[C@@]2(CCN(C(=O)Nc3ccccc3)C2)C1 1.91%
Cc1ccc(CN2CCOc3ccc(CN4CCC(O)(c5cccnc5)CC4)cc3C2)cc1 9.12%
N[C@](CC1c2ccccc2Oc2ccccc21)(C(=O)O)[C@H]1C[C@@H]1C(=O)O 25%
O=C(/C=C/c1ccc(O)c(O)c1)OCCc1ccccc1
COc1cccc(Cn2c(=O)c(-c3cccs3)nc3cnc(Nc4ccccc4)nc32)c1 32.3%
CCC(=O)NCc1nc(-c2cccc(NC(=O)c3ccc(C)s3)c2)oc1C 9.29%
NCC(O)CC(=O)O (stereo unspecified) 8.43%
COc1ccc(CN2CC[C@H]3C=CC[C@@H](C(=O)N4CCN(c5ccccc5)CC4)[C@H]3C2=O)cc1OC 11.7%
[C-]#[N+]c1cc(-c2ccncc2)c(C)[nH]c1=O 15.7% [at 320 µM]
COCCn1c(=O)cnc2cnc(Oc3ccc(OC)cc3)nc21 -2.81%
C[C@H](CCC(=O)O)[C@H]1CC[C@H]2[C@@H]3[C@H](O)C[C@@H]4C[C@H](O)CC[C@]4(C)[C@H]3CC[C@]12C 12.6% [at 75.8 µM]
Cc1ccc(C(=O)Nc2cnn(-c3ccc(C(=O)N(C)Cc4n[nH]c5c4CCCC5)cc3)c2)c(C)c1 -5.63%
COc1ccccc1C1CN(CCNC(=O)[C@@H]2CSC(=O)N2)Cc2ccccc2O1 (stereo partly specified) 5.26%
C[N+](C)(C)CC[N+]1(C)Cc2c(Cl)c(Cl)c(Cl)c(Cl)c2C1
Cc1cccc(CNC(=O)c2c3n(c(C)cc2=O)-c2ccccc2SC(c2sccc2C)C3)n1 (stereo unspecified) 12.5%
CN1CCN(c2c(F)cc3c(=O)c(C(=O)O)cn(CCF)c3c2F)CC1 13.5%
CC1=C(/C=C/C(C)=C/C=C/C(C)=C/C=C/C=C(C)/C=C/C=C(C)/C=C/C2=C(C)C(=O)C(O)CC2(C)C)C(C)(C)CC(O)C1=O (stereo unspecified) 17%
Nc1ncnc2c1c(I)cn2[C@@H]1C[C@H](N)[C@@H](O)[C@H]1O -1.55% [at 75.8 µM]
CN(C)c1ccc(-c2nc(N(C)Cc3ccco3)c3ccccc3n2)cc1 -18.7%
CNc1cc(OC)c(C(=O)N[C@H]2CCN(Cc3ccccc3)[C@H]2C)cc1Cl 14.6%
Clc1ccccc1-c1nc(-n2ccnc2)c2ccccc2n1 -0.47%
Cc1noc(C)c1C(=O)N1CCC2(CCCN(C(=O)Nc3cccc(C#N)c3)C2)CC1 -14.8%
COc1ccccc1CN1CC[C@@]2(CCCN(C(=O)c3ccco3)C2)C1 24.2%
COc1ccc(CCN(C)CCCC(C#N)(c2cc(OC)c(OC)c(OC)c2)C(C)C)cc1OC (stereo unspecified)
Nc1cc(C(Cl)=C(Cl)Cl)c(S(N)(=O)=O)cc1S(N)(=O)=O
CCCCCCCCCCCCCCCCCC(=O)OCCO -13.4%
N#Cc1ccc(CN2CC[C@@]3(CCCN(C(=O)c4cc(C(F)(F)F)cc(C(F)(F)F)c4)C3)C2)cc1 -18.5%
CC[C@H](C)C(=O)O[C@H]1CCC=C2C=C[C@H](C)[C@H](CC[C@@H]3C[C@@H](O)CC(=O)O3)[C@H]21
COCC(=O)N1CCC2(CC1)CCN(C(=O)Nc1cccc(C#N)c1)CC2 16.3%
COc1ccc(CN2Cc3ccccc3OC(c3ccccc3OC)C2)c(O)c1 (stereo unspecified) 0.335%
C[C@@H]1CN(Cc2ccc3c(c2)CN(Cc2cccn2-c2cccnc2)CCO3)C[C@H](C)O1 10.4%
CC1(C)CCC[C@]2(C)C3CC(=O)O[C@@]3(C)CC[C@H]12 (stereo partly specified) 9.29%
O=C(Nc1cccc(F)c1)N1CCC2(CC1)CCN(C(=O)c1cccc(F)c1)CC2 12.9%
CC(C)C[C@@H](COc1ccccc1)N1CCN(C)CCC1=O 5.09%
CC(C)C[C@H](NC(=O)CNC(=O)[C@H](Cc1ccc(O)cc1)NC(=O)[C@H](CO)NC(=O)[C@H](Cc1c[nH]c2ccccc12)NC(=O)[C@H](Cc1cnc[nH]1)NC(=O)[C@@H]1CCC(=O)N1)C(=O)N[C@@H](CCCN=C(N)N)C(=O)N1CCC[C@H]1C(=O)NCC(N)=O (stereo in doubt) 16.9%
COc1ccc2[nH]cc(CCNc3ccnc(-c4ccoc4)n3)c2c1 -7.57%
CC1(C)S[C@@H]2[C@H](NC(=O)Cc3ccccc3)C(=O)N2[C@H]1C(=O)O (tested in a mixture with another compound) 16.4%
CNc1ncnc2ccc(-c3ccccc3OC)cc12 25%
COc1c2occc2c(OC)c2c(=O)cc(C)oc12
CC(C)c1c(C(=O)NCCN2CCOCC2)cnn1-c1nccc(-c2ccco2)n1 10.2%
O=C(N[C@@H]1c2ccccc2C2(CCN(Cc3c(O)ccc4ccccc34)CC2)[C@H]1O)c1ccccc1 5.29%
CC[C@H](C)[C@H](NC(=O)[C@H](CCCN=C(N)N)NC(=O)[C@H](CCCN=C(N)N)NC(=O)[C@H](CC(C)C)NC(=O)[C@H](Cc1ccccc1)NC(=O)CNC(=O)CN)C(=O)N[C@@H](CCCN=C(N)N)C(=O)N1CCC[C@H]1C(=O)N[C@@H](CCCCN)C(=O)N[C@@H](CC(C)C)C(=O)N[C@@H](CCCCN)C(=O)O 11.8% [at 15.3 µM]
C1CNCCN1
COc1cccc(Cn2c(=O)cnc3cnc(OCc4ccccc4)nc32)c1 2.62%
COc1ncc2nc(-c3cc(F)cc(F)c3)c(=O)n(C)c2n1 10.3%
Cc1c(C(=O)NCCCc2ccncc2)cnn1-c1ncc2c(n1)-c1ccccc1CC2 18.8%
CN(CCO)C(=O)c1cn(C2CCCN(Cc3cccc4ccccc34)C2)nn1 (stereo unspecified) 12.6%
COc1ccc(Oc2ncc3ncc(=O)n(C4CC4)c3n2)cc1 14.4%
CN(C)Cc1ccccc1-c1ccc2ncnc(N(C)C)c2c1 -1.95%
O=C(C[N+]1(CC(O)c2ccccc2)CCOCC1)c1ccccc1 (stereo unspecified) -20.5%
COc1cc(=O)n2c(c1C(=O)N(C)Cc1nonc1C)CCN(C(=O)c1cccc(C)c1C)CC2 -5.14%
C[C@H](CCC(=O)O)C1CC[C@H]2C3CC[C@@H]4C[C@H](O)CC[C@]4(C)C3C[C@H](O)[C@]12C (stereo partly specified) -2.57%
